Experimental data as given in publication PMC4336329 (PLoS ONE, 2015).
Screen size: about 310,000 compounds; about 2,200 (0.71%) showed an effect of 50% or more. Effects have a minus sign here. The list shows a part of the results.

The molecules below were run against human ether-à-go-go-related gene (hERG) potassium channel (human, UniProt Q12809) (assay: primary screen, population patch clamp on CHO cells stably expressing hERG).
human ether-à-go-go-related gene (hERG) potassium channel, sequence (Q12809 whole entry, looked up): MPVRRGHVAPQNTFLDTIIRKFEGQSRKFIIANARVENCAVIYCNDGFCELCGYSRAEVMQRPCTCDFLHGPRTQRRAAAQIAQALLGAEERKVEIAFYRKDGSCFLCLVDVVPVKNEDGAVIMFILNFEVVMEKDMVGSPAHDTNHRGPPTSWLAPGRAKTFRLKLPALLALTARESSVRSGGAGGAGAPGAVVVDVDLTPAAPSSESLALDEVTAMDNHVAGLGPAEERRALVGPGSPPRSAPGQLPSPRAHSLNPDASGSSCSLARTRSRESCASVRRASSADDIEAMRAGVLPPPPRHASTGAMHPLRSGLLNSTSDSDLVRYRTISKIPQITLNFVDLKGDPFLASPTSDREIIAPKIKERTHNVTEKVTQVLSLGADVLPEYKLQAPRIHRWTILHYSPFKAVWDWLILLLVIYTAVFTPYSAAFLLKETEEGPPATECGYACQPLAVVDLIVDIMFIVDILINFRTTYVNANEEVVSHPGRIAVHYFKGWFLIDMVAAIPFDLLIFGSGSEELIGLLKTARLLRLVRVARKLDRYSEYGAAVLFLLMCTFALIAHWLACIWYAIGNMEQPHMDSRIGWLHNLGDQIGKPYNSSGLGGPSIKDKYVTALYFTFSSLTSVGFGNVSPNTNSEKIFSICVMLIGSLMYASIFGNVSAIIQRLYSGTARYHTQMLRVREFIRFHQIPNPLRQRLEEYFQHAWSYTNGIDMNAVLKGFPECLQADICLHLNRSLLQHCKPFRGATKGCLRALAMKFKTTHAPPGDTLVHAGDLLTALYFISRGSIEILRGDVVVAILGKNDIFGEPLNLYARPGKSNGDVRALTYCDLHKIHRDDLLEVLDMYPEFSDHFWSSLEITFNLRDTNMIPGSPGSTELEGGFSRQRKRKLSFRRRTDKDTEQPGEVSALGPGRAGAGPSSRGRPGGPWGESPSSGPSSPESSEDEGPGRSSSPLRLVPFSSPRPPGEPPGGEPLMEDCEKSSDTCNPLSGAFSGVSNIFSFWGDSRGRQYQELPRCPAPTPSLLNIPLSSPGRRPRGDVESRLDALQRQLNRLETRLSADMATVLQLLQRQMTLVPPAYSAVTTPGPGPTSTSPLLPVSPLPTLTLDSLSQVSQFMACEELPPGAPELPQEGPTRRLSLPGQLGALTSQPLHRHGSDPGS
For `O=C(OCC(=O)N1CCN(C(=O)c2ccco2)CC1)c1ccccc1OCc1ccc(Cl)cc1`, the “hERG current change (%, negative = inhibition) at 1uM” value was -6.07%. With `CN(C(=O)c1ccccc1C(=O)OCC(=O)NC(=O)NC(C)(C)C)C1CCCCC1` the “hERG current change (%, negative = inhibition) at 1uM” value was 6.73%. `Cc1ccc(NC(=O)CSc2nnc(-c3cnccn3)n2-c2ccccc2)cc1` was tested, and the “hERG current change (%, negative = inhibition) at 1uM” value was 18.1%. For `Cl.O=C(CCN1Cc2ccccc2C1)c1ccc2c(c1)OCCO2`, the “hERG current change (%, negative = inhibition) at 1uM” value was 7.23%. With `CSCCC(NC(=O)c1cccc([N+](=O)[O-])c1)C(=O)OCC(=O)N1CCCC1=O` (stereo not drawn) the “hERG current change (%, negative = inhibition) at 1uM” value was 14%. For `COc1ccc(OCC(=O)N/N=c2\oc3c(OC)cccc3cc2C(N)=O)cc1`, the “hERG current change (%, negative = inhibition) at 1uM” value was 5.79%. For `CCC(=O)NCCc1cc2ccc(C)c(C)c2[nH]c1=O`, the “hERG current change (%, negative = inhibition) at 1uM” value was 7.75%. In the case of `O=C1NC2(NN1c1ccccc1)C1CC3CC(C1)CC2C3` (stereo not drawn), the “hERG current change (%, negative = inhibition) at 1uM” value is reported as 2.73%. `Cc1cccc(NP(=O)(Oc2ccccc2F)Oc2ccccc2F)c1C` was tested, and the “hERG current change (%, negative = inhibition) at 1uM” value was 11.7%. With `Cc1nnc(SCC(=O)Nc2nonc2C)s1` the “hERG current change (%, negative = inhibition) at 1uM” value was 7.23%. For `COCCOC(=O)c1c(C)oc2ccc(NS(=O)(=O)c3ccccc3)cc12`, the “hERG current change (%, negative = inhibition) at 1uM” value was 7.69%. With `Cc1ccccc1N1CN(Cc2ccco2)CNC1=S` the “hERG current change (%, negative = inhibition) at 1uM” value was -14.5%. With `COc1ccc2nc(SCC(=O)NCc3ccc(F)cc3)[nH]c2c1` the “hERG current change (%, negative = inhibition) at 1uM” value was 7.55%. `CCN(CCCNC(=O)CCC(=O)N1CCOc2ccccc21)Cc1ccccc1` was tested, and the “hERG current change (%, negative = inhibition) at 1uM” value was -17.4%. For `O=c1c2ccccc2nc(SCc2ccccc2)n1CC1CCCO1` (stereo not drawn), the “hERG current change (%, negative = inhibition) at 1uM” value was 7.33%. With `CC(C)c1ccc(-n2cccc2/C=C2/C(=N)N3C=CSC3=NC2=O)cc1` the “hERG current change (%, negative = inhibition) at 1uM” value was 9.02%. In the case of `CCOC(=O)c1c(-c2ccccc2)csc1NC(=O)CSc1nc(C)cc(C)n1`, the “hERG current change (%, negative = inhibition) at 1uM” value is reported as 5.61%. For `CCc1ccc(NC(=O)CCNC(=O)N2C[C@H]3C[C@@H](C2)c2cccc(=O)n2C3)cc1`, the “hERG current change (%, negative = inhibition) at 1uM” value was -0.968%. With `COc1ccc([C@H]2CC(=O)C=C(c3ccc(C)c(F)c3)C2)cc1` the “hERG current change (%, negative = inhibition) at 1uM” value was -4.05%. For `CC(C)CC(=O)NNC(=S)NCc1ccco1`, the “hERG current change (%, negative = inhibition) at 1uM” value was 8.16%. With `Cc1cc(C(C)(C)C)cc(C)c1Cn1c2[n+](c3ccc(C(F)(F)F)cc31)CCCCC2.[Cl-]` the “hERG current change (%, negative = inhibition) at 1uM” value was -21.2%. `COc1ccc(N(CC(=O)N/N=C/c2cccs2)S(=O)(=O)c2ccc(OC)c(OC)c2)cc1` was tested, and the “hERG current change (%, negative = inhibition) at 1uM” value was -11%. `COC(=O)C1=C[C@@H](C(=O)OC)[C@@H]2C3=C(C(=O)[C@]2(C)NC(=O)c2ccccc2)[C@H](C)n2c(=O)n(-c4ccccc4)c(=O)n2[C@@H]3C1` was tested, and the “hERG current change (%, negative = inhibition) at 1uM” value was 8.51%. In the case of `CCc1cc(=O)oc2cc(OC(C)C(=O)NCC3CCC(C(=O)O)CC3)c(Cl)cc12` (stereo not drawn), the “hERG current change (%, negative = inhibition) at 1uM” value is reported as 18.4%. `O=C(Nc1ccccn1)c1ccc(S(=O)(=O)N2CCCC2)cc1` was tested, and the “hERG current change (%, negative = inhibition) at 1uM” value was 11.6%. `O=C(Nc1nc2nccc(-c3ccccc3)n2n1)C(Cl)(Cl)Cl` was tested, and the “hERG current change (%, negative = inhibition) at 1uM” value was 8.77%. With `C/C(=N\NC(=O)c1ccccc1)c1cccc(Br)c1` the “hERG current change (%, negative = inhibition) at 1uM” value was 2.17%. `CCCCN(C)Cc1c(C)[nH]c2ccc(OCC)cc2c1=O` was tested, and the “hERG current change (%, negative = inhibition) at 1uM” value was -11.1%. For `CCOC(=O)Cc1cc(=O)n2[nH]c(-c3ccc(C)cc3)cc2n1`, the “hERG current change (%, negative = inhibition) at 1uM” value was 11.7%. For `O=C(N/N=C/c1ccc([N+](=O)[O-])cc1)c1ccc(COc2ccccc2-c2ccccc2)cc1`, the “hERG current change (%, negative = inhibition) at 1uM” value was 0.479%. For `O=C1CN(Cc2ccccc2)C(=NCc2ccco2)S1`, the “hERG current change (%, negative = inhibition) at 1uM” value was 0.38%. In the case of `COc1ccc(NC(=O)CSCC(=O)Nc2cc(Cl)ccc2N2CCOCC2)cc1`, the “hERG current change (%, negative = inhibition) at 1uM” value is reported as 15.1%. `CC(C)N(C(=O)CO/N=C/c1cccc([N+](=O)[O-])c1)C(C)C` was tested, and the “hERG current change (%, negative = inhibition) at 1uM” value was 6.85%. `CC(C)(c1ccccc1)c1ccc(OCCCNCCO)cc1.O=C(O)C(=O)O` was tested, and the “hERG current change (%, negative = inhibition) at 1uM” value was 6.74%. In the case of `CCOC(=O)C1CCN(C(=O)c2cccc(S(=O)(=O)NCc3ccccc3)c2)CC1`, the “hERG current change (%, negative = inhibition) at 1uM” value is reported as 3.25%. For `COc1cccc(Nc2nc3cc(OC)ccc3cc2C#N)c1`, the “hERG current change (%, negative = inhibition) at 1uM” value was 12.5%. For `COCCOC(=O)c1c(C)nc(SCC(=O)Nc2ccc(OC)cc2)c(C#N)c1-c1ccco1`, the “hERG current change (%, negative = inhibition) at 1uM” value was -4%. With `O=C(Cn1c(=O)cnc2ccccc21)NC1CCC(O)CC1` (stereo not drawn) the “hERG current change (%, negative = inhibition) at 1uM” value was 5.49%. `Cc1nn(Cc2ccc(C(=O)Nc3ccc(C(=O)OC(C)C)cc3)o2)c(C)c1Cl` was tested, and the “hERG current change (%, negative = inhibition) at 1uM” value was 13.1%. `O=C(Nc1ccccc1-c1nnc(SCc2ccc(Cl)cc2)o1)c1ccccc1` was tested, and the “hERG current change (%, negative = inhibition) at 1uM” value was 12.5%. `COc1ccccc1NC(=O)c1c(O)c2ccccc2[nH]c1=O` was tested, and the “hERG current change (%, negative = inhibition) at 1uM” value was 8.85%. With `COC(=O)CC1Oc2ccc(C)cc2NC1=O` (stereo not drawn) the “hERG current change (%, negative = inhibition) at 1uM” value was 7.15%. With `O=C(NC(=S)NNC(=O)c1cc2ccccc2cc1O)c1ccco1` the “hERG current change (%, negative = inhibition) at 1uM” value was 4.07%. In the case of `c1cncc(-c2nc3cc4ccccc4cc3[nH]2)c1`, the “hERG current change (%, negative = inhibition) at 1uM” value is reported as 10%. For `CC[C@]1(c2ccccc2OC)C(=O)N(C(=O)OC)N1C(=O)OC`, the “hERG current change (%, negative = inhibition) at 1uM” value was 10.9%. With `CCOC(=O)[C@@H]1[C@H]2COc3ccc(Br)cc3[C@@H]2N2C(=O)N(c3ccc(C)cc3)C(=O)[C@]12C` the “hERG current change (%, negative = inhibition) at 1uM” value was 6.97%. `Cc1ccc(/C=N\NC(=O)CCc2n[nH]c(=O)[nH]c2=O)o1` was tested, and the “hERG current change (%, negative = inhibition) at 1uM” value was 10.9%. For `Cc1noc(C)c1S(=O)(=O)Nc1ccc(C(=O)N2CCN(c3ccc(Cl)cc3)CC2)cc1`, the “hERG current change (%, negative = inhibition) at 1uM” value was 13.6%. With `O=S(=O)(Nc1ccc(N=Nc2ccc(O)c3ccccc23)cc1)c1ccccc1` the “hERG current change (%, negative = inhibition) at 1uM” value was 5.3%. For `Cc1c(NC(=O)c2c(F)c(F)c(F)c(F)c2F)c(=O)n(-c2ccccc2)n1C`, the “hERG current change (%, negative = inhibition) at 1uM” value was 19%. With `COc1ccc(C(=O)CSc2nnc(Cn3cnc4ccccc43)o2)cc1` the “hERG current change (%, negative = inhibition) at 1uM” value was 15.3%. In the case of `Cc1c(OCc2ccc(C(=O)O)o2)ccc2c3c(c(=O)oc12)CCC3`, the “hERG current change (%, negative = inhibition) at 1uM” value is reported as 7.74%. `CCSc1cc(N2CCCC2)nc(-c2ccccc2Cl)n1` was tested, and the “hERG current change (%, negative = inhibition) at 1uM” value was 7.41%. With `COCCCn1c(=O)c2sccc2n(Cc2ccccc2)c1=O` the “hERG current change (%, negative = inhibition) at 1uM” value was 11.8%.
